Sequences and labels used below:
T1: UNK ZnF1-6 (called full-length) (human, UniProt Q9C0B0 30-357)
T1 sequence: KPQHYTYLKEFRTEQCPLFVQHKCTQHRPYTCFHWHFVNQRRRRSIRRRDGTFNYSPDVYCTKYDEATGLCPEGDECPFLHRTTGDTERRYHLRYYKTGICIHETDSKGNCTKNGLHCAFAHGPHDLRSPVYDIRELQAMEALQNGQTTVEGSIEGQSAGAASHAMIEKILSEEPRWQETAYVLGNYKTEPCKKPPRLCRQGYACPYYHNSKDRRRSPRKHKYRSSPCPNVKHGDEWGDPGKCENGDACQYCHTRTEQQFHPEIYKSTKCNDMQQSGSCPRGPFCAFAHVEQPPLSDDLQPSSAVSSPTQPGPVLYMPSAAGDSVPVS

B1: ENSG00000198589:be:win_8601|3pUTR|ENSG00000198589|bound_else_gene|NA|bound_elsewhere_windowed (ssRNA)
RNA: GGGAGUUCUACAGUCCGACGAUCAAGUACCUGGAGCAUCAUUCUCUUCUACCACAUCUGAAUGUAACUUAAAUUUGCUCAAAGAAGCAAAAUAUUUUUUAAAGUUAUUAAUAAUUGCUAUUUUUGUAGUCUUUGCUUGACUUUCAACAGAGGAUUGAGCAUCA
B2: chr6:110632029:110632161:-|CDS|ENSG00000155111|control|control|control (ssRNA)
RNA: GGGAGUUCUACAGUCCGACGAUCCAUGGGUUUUGCCAGAUUAUUCAAUUCUCCUCUAAAGCCACUAGCAGAUUUGGAUCCAGUAGUUGUGACAUUUUGGUAUCGGGCUCCAGAACUUUUGCUUGGUGCAAGGCAUUAUACAAACAACAGAGGAUUGAGCAUCA
B3: chr2:121605696:121605828:-|CDS|ENSG00000074054|unk|total|mutant (ssRNA)
RNA: GGGAGUUCUACAGUCCGACGAUCGACCGACUAUUUCUCAGACAAACAGAAGUCUGCUGACCUUGAGCAUGACCAGACCAUGUCCGAUAAACUUGUGGAUGGACUUGCUACCUCUUGGGUGAACUCCCGCAAUUACAAGGUAAGCAACAGAGGAUUGAGCAUCA
B4: chrX:71101288:71101389:+|CDS|ENSG00000184481|unk|FALSE|unique (ssRNA)
RNA: GGGAGUUCUACAGUCCGACGAUCGGAGGCCCUGCUCACCUCUGAUACGCCACCACCCCCUGCUGACGUCCUCAUGACCCAGGUAGAUCCCAUUCUGUCCCAGGCUCCGACUCUUCUGUUGCUGGGGGGGCUUCCUUCCUCCAGCAACAGAGGAUUGAGCAUCA
B5: ENSG00000136451:be:win_1551|CDS_3pUTR|ENSG00000136451|bound_else_gene|NA|bound_elsewhere_windowed (ssRNA)
RNA: GGGAGUUCUACAGUCCGACGAUCAUCACCGCCUUGGUAAACAGUAUUAUAAAAUCAAAAUAUGGGUAAAAGUAAAUAUUUACCAGCAACUUAACUUUUAGUUGAUUAAAGCAAAAAGUAAACCAUGAAAUUGGGAGAUUUUAUCAACAGAGGAUUGAGCAUCA
B6: chr2:148946928:148947042:+|CDS|ENSG00000168280|unk|FALSE|bound_elsewhere (ssRNA)
RNA: GGGAGUUCUACAGUCCGACGAUCGAAUGAACACAGCUCUAGAAGUCACAGUAUCUUCCUGAUAAAUAUUAAACAAGAGAAUGUAGAGACUGAAAAAAAACUCAGUGGGAAACUUUAUUUGGUUGAUUUGGCUGGGAGCGAAAACAACAGAGGAUUGAGCAUCA

The list shows a part of the results.

This experiment deals with T1, UNK ZnF1-6 (called full-length). The experiment in a line: nsRBNS (natural sequence RNA bind-n-seq); RBNS binding buffer (assumed for nsRBNS): 25 mM Tris pH 7.5, 150 mM KCl, 3 mM MgCl2, 0.01% Triton X-100, 500 ug/ml BSA, 20 U/ml SUPERase-In, 4 C; UNK is unkempt and MSI1 is Musashi-1; names of the RNAs are library labels; protein concentration not given here; high values mean tight binding.
As to B1, the binding signal amounted to 0.767 enrichment R.

For B2, the binding signal came out at 0.618 enrichment R.

B3 yielded a binding signal of 0.761 enrichment R.

In turn, B4 gave a binding signal of 0.705 enrichment R.

In turn, B5 showed a binding signal of 0.46 enrichment R.

The molecule B6 had a binding signal of 0.471 enrichment R.

The record behind these values is PMC12136788.
